According to the supplement of paper PMC4967469:
The IC50 comes from the fitted curve, where viability falls to half of the control; fits outside the tested doses are given as limits. The AUC spans the tested range (256-fold, ending at the top dose) of the same fit; the more sensitive the line, the further below 1. For some assays here: An inferred top dose was calculated from the reported fits.

What was measured:
Assay in all cases: Viability of human cancer cell lines after 72 h of drug (GDSC screen)
[1] = compound: CC(=O)Nc1nc(C)c(-c2ccc(Cl)c(S(=O)(=O)NCCO)c2)s1 [PIK-93]; conditions: top dose 20 µM
Description: (§1)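 Human cancer cell lines in 384-well plates, medium with 10% serum, drug for 72 h over a 256-fold dose range (nine 2-fold or five 4-fold steps up to the top dose). Adherent lines were fixed and stained with the nucleic acid dye Syto60, suspension lines read with resazurin; signal relative to control wells, capped at 0 and 100%. One two-parameter sigmoid per drug and line, fitted in a mixed model over all curves with the slope shared within a line.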

[2] = compound: CC1(C)CCC(c2ccc(Cl)cc2)=C(CN2CCN(c3ccc(C(=O)NS(=O)(=O)c4ccc(N[C@H](CCN5CCOCC5)CSc5ccccc5)c(S(=O)(=O)C(F)(F)F)c4)cc3)CC2)C1 [ABT-263]; conditions: top dose 2 µM; top dose inferred
Description: as §1

[3] = compound: COc1cc(/C=C/C(=O)N2CCC=CC2=O)cc(OC)c1OC [piperlongumine]; conditions: top dose 10 µM
Description: as §1

[4] = compound: COc1cc2ncn(-c3cc(OCc4ccccc4C(F)(F)F)c(C(N)=O)s3)c2cc1OC [GW843682X]; conditions: top dose 0.256 µM
Description: as §1

[5] = compound: Cn1cc(/C=C2\C(=O)Nc3cccnc32)c2ccccc21 [GW 441756]; conditions: top dose 2 µM; top dose inferred
Description: as §1

[6] = compound: O=C(/C=C/c1ccccc1)NC(NC(=S)Nc1cccc2cccnc12)C(Cl)(Cl)Cl [Salubrinal]; conditions: top dose 16 µM; top dose inferred
Description: as §1

Cell Line | AUC [1] | IC50 [1] [nM] | AUC [2] | IC50 [2] [nM] | AUC [3] | IC50 [3] [nM] | AUC [4] | IC50 [4] [nM] | AUC [5] | IC50 [5] [nM] | AUC [6] | IC50 [6] [nM]
A704 (kidney, adherent) | 0.904 | > 20000 | 0.702 | 452 | 0.805 | 4870 | 0.951 | > 256 | 0.949 | > 2000 | – | –
BB65-RCC (kidney, adherent) | 0.923 | > 20000 | – | – | 0.657 | 1830 | 0.709 | – | 0.968 | > 2000 | 0.902 | > 16000
BC-3 (B-cell lymphoma, suspension) | 0.576 | 1960 | – | – | – | – | 0.876 | 207 | – | – | 0.871 | 12300
CAL-148 (breast, suspension) | 0.72 | 4950 | – | – | – | – | 0.718 | 62.7 | – | – | 0.928 | > 16000
COLO-829 (melanoma, adherent) | 0.856 | > 20000 | – | – | 0.913 | > 10000 | 0.948 | > 256 | – | – | 0.92 | > 16000
D-392MG (glioma, adherent) | 0.904 | > 20000 | 0.98 | > 2000 | 0.793 | 6510 | – | – | 0.934 | > 2000 | 0.919 | > 16000
D-542MG (glioma, adherent) | 0.735 | 6930 | 0.922 | > 2000 | 0.798 | 6020 | – | – | 0.915 | > 2000 | 0.848 | > 16000
ECC12 (stomach, suspension) | – | – | – | – | – | – | – | – | – | – | 0.888 | > 16000
EW-12 (Ewing sarcoma, suspension) | – | – | – | – | – | – | 0.975 | > 256 | – | – | 0.974 | > 16000
HCC1599 (breast, suspension) | 0.401 | 641 | – | – | – | – | 0.538 | 20.6 | – | – | 0.846 | 14300
HCC2998 (large intestine, adherent) | 0.931 | > 20000 | – | – | 0.75 | 3170 | – | – | 0.971 | > 2000 | 0.864 | 13300
HCC-33 (small cell lung carcinoma, adherent) | 0.75 | 6620 | – | – | – | – | 0.808 | 135 | – | – | 0.953 | > 16000
HEL (acute myeloid leukaemia, semi-adherent) | 0.828 | 9610 | – | – | 0.75 | 2790 | 0.487 | 14.9 | – | – | 0.858 | 9730
Hs-445 (Hodgkin lymphoma, suspension) | 0.826 | 10900 | – | – | 0.828 | 5550 | 0.699 | 55.2 | – | – | 0.977 | > 16000
IA-LM (large cell lung carcinoma, adherent) | 0.953 | > 20000 | 0.931 | > 2000 | 0.911 | > 10000 | 0.461 | 12.3 | 0.974 | > 2000 | – | –
IST-MES1 (mesothelioma, adherent) | 0.912 | > 20000 | – | – | 0.818 | 5690 | 0.837 | 173 | – | – | 0.933 | > 16000
JSC-1 (B-cell lymphoma, suspension) | 0.449 | 912 | 0.987 | > 2000 | – | – | 0.464 | 12.8 | 0.987 | > 2000 | – | –
JURL-MK1 (chronic myeloid leukaemia, suspension) | 0.75 | 6510 | 0.668 | 367 | 0.926 | > 10000 | – | – | 0.987 | > 2000 | 0.963 | > 16000
KALS-1 (glioma, adherent) | 0.792 | 13100 | – | – | 0.756 | 4640 | 0.576 | 27.9 | – | – | 0.951 | > 16000
KARPAS-620 (haematopoietic neoplasm, suspension) | 0.329 | 451 | 0.39 | 65.5 | 0.796 | 3940 | 0.261 | 3.75 | 0.988 | > 2000 | – | –
KASUMI-1 (acute myeloid leukaemia, suspension) | – | – | – | – | 0.78 | 4120 | 0.931 | > 256 | 0.948 | > 2000 | 0.985 | > 16000
KLE (endometrium, adherent) | 0.852 | > 20000 | 0.953 | > 2000 | 0.817 | > 10000 | 0.76 | 142 | 0.938 | > 2000 | – | –
KMS-12-BM (myeloma, suspension) | 0.647 | 2950 | – | – | – | – | 0.444 | 11.6 | 0.985 | > 2000 | 0.828 | 7630
KOPN-8 (B-cell leukaemia, suspension) | 0.33 | 453 | 0.654 | 311 | 0.666 | 1680 | 0.584 | 26.3 | 0.984 | > 2000 | – | –
KP-N-YS (neuroblastoma, adherent) | 0.655 | 3590 | – | – | – | – | 0.498 | 15.8 | – | – | 0.797 | 8880
LB2241-RCC (kidney, adherent) | 0.972 | > 20000 | – | – | 0.756 | 3800 | 0.938 | > 256 | 0.98 | > 2000 | 0.69 | 3650
LS-123 (large intestine, adherent) | 0.93 | > 20000 | – | – | 0.807 | 7340 | 0.782 | 146 | 0.981 | > 2000 | 0.949 | > 16000
LU-65 (large cell lung carcinoma, suspension) | 0.645 | 3410 | – | – | 0.976 | > 10000 | 0.854 | > 256 | 0.987 | > 2000 | 0.924 | > 16000
